# According to the supplement of paper PMC12217912:
# The other results are listed elsewhere or left out. The full chains were built here from the parent and the listed change. Values near 0.05 are background.
# B1: TEV protease; numbered along this chain (parent)
# chain: MGESLFKGPRDYNPISSSICHLTNESDGHTTSLYGIGFGPFIITNKHLFRRNNGTLVVQSLHGVFKVKDTTTLQQHLVDGRDMIIIRMPKDFPPFPQKLKFREPQREERICLVTTNFQTKSMSSMVSDTSCTFPSGDGIFWKHWIQTKDGQCGSPLVSTRDGFIVGIHSASNFTNTNNYFTSVPKNFMELLTNQEAQQWVSGWRLNADSVLWGGHKVFMVKPEEPFQPVKEATQL
# Variants of: B1
# Assay: raw area under fraction-flipped curve 0-4 h after induction (AUC4h, not background-subtracted), DNA-recorder readout of cleavage of the substrate (dimensionless); higher = more cleavage of the substrate by the protease variant
# Settings: temperature: 34 °C; time window: 0-4 h after rhamnose induction
# Procedure: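 In vivo DNA recorder in E. coli TOP10(DE3) ΔrhaA at 34 °C. Each TEVp single-site mutant (parent TEVp 0) is paired with a single-site variant of the 7-mer TEVs (canonical ENLYFQ|S). The substrate sits between flexible linkers in a Bxb1-sfGFP-TEVs-SsrA fusion, so cleavage stabilises Bxb1 and speeds flipping of a recombination array, read by NGS. The value is the raw area under the fraction-flipped curve over 0-4 h after rhamnose induction (AUC4h), with ≥20 reads per time point. It is not background-subtracted; inactive controls average about 0.047.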
# 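Also: Bxb1 expression induced with 0.2% (w/v) L-rhamnose at OD600 near 0.5, cultures sampled hourly, flipped fraction per protease–substrate barcode pair counted by paired-end Illumina sequencing.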
Variant,area with substrate ENLAFQS,area with substrate ENLCFQS,area with substrate ENLDFQS,area with substrate ENLEFQS,area with substrate ENLFFQS,area with substrate ENLGFQS,area with substrate ENLHFQS,area with substrate ENLKFQS,area with substrate ENLLFQS,area with substrate ENLNFQS,area with substrate ENLPFQS,area with substrate ENLQFQS,area with substrate ENLRFQS,area with substrate ENLSFQS,area with substrate ENLTFQS,area with substrate ENLIFQS,area with substrate ENLVFQS,area with substrate ENLWFQS,area with substrate ENLMFQS
I110M,0.0417,0.0636,0.0751,0.0463,0.0663,0.0653,0.0647,0.0368,0.064,0.0598,0.057,0.0481,0.0516,0.0708,0.069,,,,
I110Q,0.0629,,0.0645,0.0539,0.0596,0.0679,0.0608,0.0746,0.0718,,0.0523,,,0.0642,,,,,
S123V,0.0602,0.0789,0.0806,0.0663,0.0581,0.0865,0.0749,0.0816,0.0486,0.0425,0.0533,,0.0742,0.0682,,0.0894,,,
K120Q,0.0748,,0.0526,0.0754,0.0777,0.063,0.0534,0.0813,0.0729,,0.0587,0.0832,0.0748,,0.0717,,0.0683,0.031,
G80R,0.0598,,0.0715,,0.0581,,0.0579,0.0752,0.065,0.0766,0.0553,,,,,0.0729,,,0.0644
E108I,0.0555,,0.0532,0.0586,0.0654,,,0.0151,0.0534,0.0624,,0.0396,0.0642,0.0517,0.0662,0.0734,,0.0494,0.0879
I85V,0.0542,,0.0624,0.0684,0.0772,,0.0667,0.0583,,0.0676,0.0514,0.0548,0.065,0.062,,0.0759,,0.0701,0.12
I85D,0.023,,,0.0437,0.047,,0.0269,0.0543,0.0348,,0.041,,,,,,,0.057,
S130N,0.0721,,0.0536,,0.0905,0.0733,0.0559,0.0879,,0.0732,,0.0569,,,,,,0.0671,
S130C,0.0772,,0.0669,,0.101,,,,,0.0709,0.0709,0.078,,0.0495,,,,,
S130Q,0.046,,0.07,,0.0723,0.0729,,0.0979,,0.0478,0.0633,,,,,,0.119,0.0601,
D82F,0.0365,0.0565,0.0584,0.0506,0.0535,,0.0622,0.0652,,,0.0747,,0.066,,,0.0542,,,0.0659
D82W,0.0429,0.0649,0.0635,,0.0666,0.0473,0.0548,,,0.0462,0.053,,,0.0569,,,0.0735,0.0553,
E107M,0.0586,0.0923,,,0.0698,0.0748,,0.0696,,,0.0498,0.0641,0.0757,0.0722,,0.053,,,0.0532
E107S,0.064,0.0801,0.0653,,0.0908,0.0584,0.0664,0.0674,0.0732,0.0656,0.0422,0.0627,0.0703,0.069,0.067,,0.0648,0.0644,0.0786
R106H,0.0683,0.0876,0.067,0.0655,0.0883,0.0846,0.0714,0.0732,0.079,0.0777,0.0649,0.0748,0.0724,0.0655,,0.0636,0.0798,0.0728,
R106W,0.0729,0.0687,0.0624,0.0636,0.0802,0.0858,0.0858,0.0754,0.115,0.0668,0.0676,0.0704,0.0757,0.062,,0.0745,0.0805,0.0542,0.065
R109H,0.0577,,0.0518,0.0626,0.0793,,,0.0893,,,0.0391,,,0.0664,,0.0693,,,
I139Y,0.0639,,,,,,0.0619,,,0.0573,0.0582,0.0754,0.046,0.0732,,0.0605,,0.0537,
I139M,0.0658,,0.0642,0.0728,0.0851,,0.0736,0.0695,0.0752,0.071,0.0551,0.0621,0.072,0.0637,,0.0769,,0.0617,0.0698
L77V,0.0727,0.0557,0.0613,0.0716,0.0575,,0.0697,0.0616,0.0737,0.0612,0.0439,0.0663,0.0614,0.065,,0.0672,0.0801,0.0609,0.0665
T114Q,0.0628,0.0724,0.0574,0.0701,0.0924,,0.0485,0.0733,0.0578,0.0702,0.0704,,0.0704,0.0564,,,0.0841,0.0687,0.0788
V126R,0.0649,,0.0716,0.0511,0.103,0.0547,0.0737,0.0793,,0.0629,0.0566,,0.115,0.062,,0.0833,0.0898,0.0624,0.0848
S124Q,0.0795,,0.0637,0.0671,0.0765,0.0638,0.0709,0.0845,0.0784,0.067,0.0501,,0.0694,0.0621,,0.0773,,0.0778,0.0662
S124M,0.0556,0.0652,0.0632,0.0613,0.0912,,0.0563,0.0629,,0.0829,,,,0.0628,,,0.0939,0.0668,
S124D,0.0645,,0.0612,,,,0.0706,0.0835,0.0668,0.0573,0.0644,0.0585,0.0656,0.0632,,0.0759,0.0637,,
S124E,0.0648,,0.0649,,0.0696,,0.0776,0.0896,,0.0762,0.0858,,,0.0606,,,,0.0656,
D137K,0.0675,,0.0603,,,,,0.0792,,0.0638,0.0582,0.0536,,0.0507,,0.0944,0.0628,,
